From the supplement of paper PMC8813932
Structures can show the parent of a compound that is named as a salt. ± gives the standard deviation of the averaged measurements. The list shows a part of the results. Repeats are few or missing, and single values can be far off.

Columns and labels:
Assay in all cases: log2 surviving fraction relative to plate median (drug vs vehicle, or drug+dl922-947 vs dl922-947 alone); ovarian cancer lines: OVCAR4 is platinum-sensitive while Ov4Cis resists cisplatin and Ov4Carbo carboplatin; higher = more cell survival
Conditions in all cases: compound concentration: 10 uM, 192 h
OVCAR4 = tested on: OVCAR4
Ov4Carbo = tested on: Ov4Carbo
Ov4Cis = tested on: Ov4Cis
[1] = dl922-947 oncolytic adenovirus co-treatment: MOI 10
[2] = dl922-947 oncolytic adenovirus co-treatment: none

Row | Structure (SMILES) | log2 surviving fraction (OVCAR4; [1]) | log2 surviving fraction (OVCAR4; [2]) | log2 surviving fraction (Ov4Carbo; [1]) | log2 surviving fraction (Ov4Carbo; [2]) | log2 surviving fraction (Ov4Cis; [1]) | log2 surviving fraction (Ov4Cis; [2])
1 | C[C@H](CCC(=O)O)[C@H]1CC[C@H]2[C@@H]3[C@H](O)C[C@@H]4C[C@H](O)CC[C@]4(C)[C@H]3CC[C@]12C [Chenodeoxycholic acid] | 0.136 ± 0.36 | 0.358 ± 0.29 | 0.987 | 0.536 | -0.327 | 0.22
2 | CCOC(=O)N1CCC(=C2c3ccc(Cl)cc3CCc3cccnc32)CC1 [Loratadine] | 0.12 ± 0.57 | 0.257 ± 0.09 | 0.354 | 0.251 | 0.0992 | 0.63
3 | CCC[S+]([O-])c1ccc2[nH]c(NC(=O)OC)nc2c1 (stereo not given) [Albendazole Oxide (Ricobendazole)] | -0.365 ± 0.28 | -0.979 ± 0.34 | -0.443 | -2.58 | -0.597 | -0.687
4 | Clc1ccc(C(c2ccccc2Cl)C(Cl)Cl)cc1 (stereo not given) [Mitotane (Lysodren)] | 0.0752 ± 0.97 | -0.533 ± 0.16 | 0.956 | 1.16 | -0.921 | -1.09
5 | C[C@@H](NCCCc1cccc(C(F)(F)F)c1)c1cccc2ccccc12 [AMG-073 HCl (Cinacalcet hydrochloride)] | -1.88 ± 1.1 | -0.765 ± 0.83 | -2.92 | -6.55 | -4.32 | -4.2
6 | CC(C)[C@H](N)C(=O)OCCOCn1cnc2c(=O)nc(N)[nH]c21 [Valaciclovir HCl] | -0.219 ± 0.51 | 0.327 ± 0.42 | 0.969 | -0.916 | 0.499 | -0.092
7 | CCN[C@@H]1C[C@H](N)[C@@H](O[C@H]2OC(CN)=CC[C@H]2N)[C@H](O)[C@H]1O[C@H]1OC[C@](C)(O)[C@H](NC)[C@H]1O [Netilmicin Sulfate] | 0.289 ± 0.83 | -0.655 ± 0.67 | 0.513 | 0.389 | 0.255 | 0.473
8 | CC(C(=O)O)c1ccc(-c2ccccc2)c(F)c1 (stereo not given) [Flurbiprofen (Ansaid)] | 0.513 ± 0.6 | 0.559 ± 0.018 | 0.307 | -1.51 | 0.842 | 0.488
9 | Cc1cc(C(C)(C)C)c(O)c(C)c1CC1=NCCN1 [Oxymetazoline hydrochloride] | 0.521 ± 0.2 | 0.215 ± 0.0039 | 0.559 | 0.211 | 0.474 | -0.103
10 | CN(C)CCOC(C)(c1ccccc1)c1ccccn1 (stereo not given) [Doxylamine Succinate] | 0.701 ± 0.2 | -0.127 ± 0.68 | -0.839 | -0.0379 | 0.0359 | 0.787
11 | CN(C)C(=O)Oc1cccc([N+](C)(C)C)c1 [Neostigmine bromide (Prostigmin)] | -0.0693 ± 0.12 | 0.254 ± 0.27 | -0.207 | 0.176 | 0.304 | 0.269
12 | CC1CCc2cc(F)cc3c(=O)c(C(=O)O)cn1c23 (stereo not given) [Flumequine] | -0.815 ± 1.1 | -0.476 ± 0.86 | -1.06 | 0.754 | -1.31 | -3.57
13 | CO[C@H]1C[C@@H]2CC[C@@H](C)[C@@](O)(O2)C(=O)C(=O)N2CCCC[C@H]2C(=O)O[C@H]([C@H](C)C[C@@H]2CC[C@@H](OC(=O)C(C)(CO)CO)[C@H](OC)C2)CC(=O)[C@H](C)/C=C(\C)[C@@H](O)[C@@H](OC)C(=O)[C@H](C)C[C@H](C)/C=C/C=C/C=C/1C [Temsirolimus (Torisel)] | -2.12 ± 0.38 | -6.34 ± 0.88 | -2 | -6.89 | -1.74 | -6.07
14 | C[C@]12CC[C@H](O)CC1=CC[C@@H]1[C@@H]2CC[C@]2(C)C(c3cccnc3)=CC[C@@H]12 [Abiraterone (CB-7598)] | 0.263 ± 0.85 | -3.39 ± 5.2 | 1.14 | 1.3 | 0.792 | 0.601
15 | COc1ncnc(NS(=O)(=O)c2ccc(N)cc2)c1OC [Sulfadoxine (Sulphadoxine)] | -0.242 ± 0.58 | -0.138 ± 0.24 | -1.07 | 0.239 | -0.177 | -0.104
16 | Cc1cc(C(C#N)c2ccc(Cl)cc2)c(Cl)cc1NC(=O)c1cc(I)cc(I)c1O (stereo not given) [Closantel] | 0.231 ± 0.35 | 0.586 ± 0.26 | 1.47 | -0.241 | 0.727 | 0.396
17 | CC(=O)Oc1ccccc1C(=O)Nc1ncc([N+](=O)[O-])s1 [Nitazoxanide (Alinia, Annita)] | -0.885 ± 0.13 | -0.687 ± 1.3 | 1.13 | -0.268 | 0.266 | -0.754
18 | CC(C)c1nc(N(C)S(C)(=O)=O)nc(-c2ccc(F)cc2)c1/C=C/[C@@H](O)C[C@@H](O)CC(=O)O [Rosuvastatin calcium (Crestor)] | -0.8 ± 0.25 | -0.567 ± 0.31 | 0.313 | 0.0538 | -0.386 | -0.466
19 | CCc1c2c(nc3ccc(OC(=O)N4CCC(N5CCCCC5)CC4)cc13)-c1cc3c(c(=O)n1C2)COC(=O)[C@]3(O)CC [Irinotecan HCl Trihydrate (Campto)] | -7.69 ± 0.48 | -8.66 ± 4.1 | -6.9 | -10.4 | -7.56 | -11.9
20 | OCC(CO)N[C@H]1C[C@](O)(CO)[C@@H](O)[C@H](O)[C@H]1O [Voglibose] | 0.14 ± 0.23 | -0.306 ± 0.4 | 0.248 | -0.641 | 0.52 | -0.0689
21 | COc1ccc2[nH]c([S@@+]([O-])Cc3ncc(C)c(OC)c3C)nc2c1 [Esomeprazole sodium (Nexium)] | -0.492 ± 0.13 | -0.313 ± 0.41 | -0.408 | 0.0625 | -0.675 | -0.571
22 | CCN(CC)CC#CCOC(=O)C(O)(c1ccccc1)C1CCCCC1 (stereo not given) [Oxybutynin (Ditropan)] | -1.05 ± 0.015 | -0.811 ± 0.21 | 0.00736 | -0.432 | -0.954 | -0.992
23 | COc1ccccc1N1CCN(CC(O)COc2cccc3ccccc23)CC1 (stereo not given) [Naftopidil (Flivas)] | -0.198 ± 0.0029 | -0.727 ± 0.18 | 0.127 | -0.832 | -0.704 | -1.54

Row | Structure (SMILES) | log2 surviving fraction (OVCAR4; [1]) | log2 surviving fraction (OVCAR4; [2]) | log2 surviving fraction (Ov4Carbo; [1]) | log2 surviving fraction (Ov4Carbo; [2]) | log2 surviving fraction (Ov4Cis; [1]) | log2 surviving fraction (Ov4Cis; [2])
24 | CC(=O)O[C@H]1CC[C@@]2(C)C(=CC[C@@H]3[C@@H]2CC[C@]2(C)C(c4cccnc4)=CC[C@@H]32)C1 [Abiraterone Acetate (CB7630)] | -1.27 ± 0.12 | -0.719 ± 0.48 | 0.666 | -0.482 | 0.0373 | -1.03
25 | CC(=O)Nc1c(I)c(C(=O)N[C@H]2C(O)O[C@H](CO)[C@@H](O)[C@@H]2O)c(I)c(N(C)C(C)=O)c1I (stereo not given in full) [Metrizamide] | 0.728 ± 0.77 | 0.814 ± 0.41 | 0.276 | 0.604 | 0.468 | -0.152
26 | COc1cc2c(cc1O)CC[C@@H]1[C@@H]2CC[C@]2(C)[C@@H](O)CC[C@@H]12 [2-Methoxyestradiol] | -6.908 ± 0.033 | -6.34 ± 6.2 | -5.05 | -8.77 | -5.59 | -9.52
27 | CCCCC1=NC2(CCCC2)C(=O)N1Cc1ccc(-c2ccccc2-c2nnn[nH]2)cc1 [Irbesartan (Avapro)] | 0.352 ± 0.47 | 0.338 ± 0.31 | 0.708 | 0.11 | 0.548 | 0.346
28 | COCCCOc1cc(C[C@@H](C[C@H](N)[C@@H](O)C[C@H](C(=O)NCC(C)(C)C(N)=O)C(C)C)C(C)C)ccc1OC [Aliskiren hemifumarate] | -0.555 ± 0.53 | 0.0701 ± 0.34 | 0.379 | 0.384 | 0.755 | -0.0824
29 | CN(C)[C@@H]1C(O)=C(C(N)=O)C(=O)[C@@]2(O)C(O)=C3C(=O)c4c(O)cccc4[C@@](C)(O)[C@H]3[C@H](O)[C@@H]12 [Oxytetracycline dihydrate] | 0.505 ± 1.3 | 0.555 ± 1.4 | 0.84 | 0.308 | -0.0671 | -0.522
30 | O=P1(NCCCl)OCCCN1CCCl (stereo not given) [Ifosfamide] | -0.165 ± 1.4 | 0.426 ± 0.49 | 0.116 | 0.649 | 0.294 | 0.227
31 | NCCCC(O)(P(=O)(O)O)P(=O)(O)O [Alendronate (Fosamax)] | 0.0692 ± 0.55 | 0.244 ± 0.11 | 0.882 | 0.431 | -0.503 | -0.881
32 | O=C(O)c1cc(/N=N/c2ccc(O)c(C(=O)O)c2)ccc1O [olsalazine sodium] | 0.0874 ± 0.18 | 0.559 ± 0.24 | -0.0216 | 1.1 | 0.452 | 0.619
33 | CN(C)CCc1c[nH]c2ccc(Cn3cncn3)cc12 [Rizatriptan Benzoate (Maxalt)] | 0.0161 ± 0.57 | -0.113 ± 0.87 | 0.217 | -0.347 | 0.699 | 0.289
34 | CNC[C@@H](O)c1ccc(O)c(O)c1 [L-Adrenaline (Epinephrine)] | -0.133 ± 0.041 | -0.525 ± 1.1 | -1.72 | -1.6 | -1.01 | -0.4
35 | CCCCC1C(=O)N(c2ccccc2)N(c2ccccc2)C1=O [Phenylbutazone (Butazolidin, Butatron)] | 0.358 ± 0.93 | 0.822 ± 0.36 | -0.635 | 0.0833 | -0.0554 | 0.839
36 | CC(C)(O)c1ccccc1CC[C@@H](SCC1(CC(=O)O)CC1)c1cccc(/C=C/c2ccc3ccc(Cl)cc3n2)c1 [Montelukast Sodium] | -0.59 ± 0.47 | 0.185 ± 0.068 | -1.18 | -0.0383 | 0.146 | -1.04
37 | Nc1nc(N)c2nc(-c3ccccc3)c(N)nc2n1 [triamterene] | -0.646 ± 0.016 | -2.84 ± 2.5 | 1.23 | -0.128 | -0.303 | -0.0863
38 | CN1CCCC(n2nc(Cc3ccc(Cl)cc3)c3ccccc3c2=O)CC1 (stereo not given) [Azelastine hydrochloride (Astelin)] | -4.63 ± 0.67 | -2.62 ± 1.2 | -4 | -2.17 | -6.84 | -3.5
39 | O=C(N/N=C/c1ccc([N+](=O)[O-])o1)c1ccc(O)cc1 [Nifuroxazide] | 0.302 ± 0.16 | 0.226 ± 0.6 | 0.743 | -0.658 | 0.428 | 0.296
40 | CC(C)(C(=O)O)c1ccc(C(O)CCCN2CCC(C(O)(c3ccccc3)c3ccccc3)CC2)cc1 (stereo not given) [Fexofenadine HCl] | -0.213 ± 0.84 | -0.215 ± 0.8 | 0.246 | -0.352 | -0.43 | 0.0423
41 | CC1(C)S[C@@H]2[C@H](NC(=O)C(C(=O)O)c3ccccc3)C(=O)N2[C@H]1C(=O)O (stereo not given in full) [Carbenicillin disodium] | -0.135 ± 0.2 | 0.199 ± 0.33 | 0.994 | 0.365 | -0.8 | 0.212
42 | Cn1c(=O)c2c(ncn2CC(O)CO)n(C)c1=O (stereo not given) [Dyphylline (Dilor)] | -0.321 ± 1 | 0.261 ± 0.032 | 0.0923 | -0.12 | -0.155 | 0.0375
43 | O=c1[nH]c2ccccc2n1C1CCN(CCCC(c2ccc(F)cc2)c2ccc(F)cc2)CC1 [Pimozide] | -3.39 ± 0.81 | -2.08 ± 2.4 | -4.9 | -0.0109 | -5.49 | -6.06
44 | O=C(O)COCCN1CCN(C(c2ccccc2)c2ccc(Cl)cc2)CC1 (stereo not given) [Cetirizine Dihydrochloride] | -0.606 ± 0.26 | -0.117 ± 0.054 | -0.329 | 0.566 | -0.32 | 0.389
45 | CCS(=O)(=O)CCn1c([N+](=O)[O-])cnc1C [tinidazole] | 0.49 ± 0.48 | -0.145 ± 0.92 | -0.719 | 0.0807 | 0.267 | 0.5
